Results as given in publication PMC2702275, “TIPT2 and geminin interact with basal transcription factors to synergize in transcriptional regulation”.
These are yes or no findings as the source states them, for the method shown. In cells and extracts the contact can be indirect. Some results given as binding are weak or reduced against the parent protein; the word gives no strength. Where a sequence is shown, tags or fusion partners need not be part of it.

Sequences of proteins named here, by UniProt entry; tags and fusion partners are left off.
UniProt Q9CQJ4: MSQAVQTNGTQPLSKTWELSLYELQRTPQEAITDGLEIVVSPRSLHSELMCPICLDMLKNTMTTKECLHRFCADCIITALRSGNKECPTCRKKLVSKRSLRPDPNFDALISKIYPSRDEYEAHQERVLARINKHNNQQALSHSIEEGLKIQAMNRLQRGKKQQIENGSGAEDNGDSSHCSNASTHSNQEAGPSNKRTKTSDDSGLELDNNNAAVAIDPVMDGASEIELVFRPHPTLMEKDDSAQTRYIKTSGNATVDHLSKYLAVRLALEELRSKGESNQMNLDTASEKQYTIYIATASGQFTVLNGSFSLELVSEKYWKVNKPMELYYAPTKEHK
UniProt Q8K214: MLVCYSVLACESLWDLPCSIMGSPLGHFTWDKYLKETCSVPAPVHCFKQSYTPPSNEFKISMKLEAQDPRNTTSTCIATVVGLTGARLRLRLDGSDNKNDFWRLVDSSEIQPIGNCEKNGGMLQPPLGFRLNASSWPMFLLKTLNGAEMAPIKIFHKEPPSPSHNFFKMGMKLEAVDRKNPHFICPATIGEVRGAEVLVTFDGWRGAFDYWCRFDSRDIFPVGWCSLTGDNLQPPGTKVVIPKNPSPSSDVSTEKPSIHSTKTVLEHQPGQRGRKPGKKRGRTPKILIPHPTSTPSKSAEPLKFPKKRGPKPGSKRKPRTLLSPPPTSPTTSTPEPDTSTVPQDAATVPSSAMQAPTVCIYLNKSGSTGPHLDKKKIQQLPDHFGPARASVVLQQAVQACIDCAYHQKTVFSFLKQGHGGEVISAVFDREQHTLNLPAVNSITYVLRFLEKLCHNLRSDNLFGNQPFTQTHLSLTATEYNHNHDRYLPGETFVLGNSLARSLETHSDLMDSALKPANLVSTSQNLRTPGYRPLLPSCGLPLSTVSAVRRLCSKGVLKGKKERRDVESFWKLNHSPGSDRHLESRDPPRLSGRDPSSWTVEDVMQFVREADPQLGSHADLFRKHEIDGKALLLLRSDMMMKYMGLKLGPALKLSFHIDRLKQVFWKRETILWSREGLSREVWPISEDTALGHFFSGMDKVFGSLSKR
UniProt Q00403: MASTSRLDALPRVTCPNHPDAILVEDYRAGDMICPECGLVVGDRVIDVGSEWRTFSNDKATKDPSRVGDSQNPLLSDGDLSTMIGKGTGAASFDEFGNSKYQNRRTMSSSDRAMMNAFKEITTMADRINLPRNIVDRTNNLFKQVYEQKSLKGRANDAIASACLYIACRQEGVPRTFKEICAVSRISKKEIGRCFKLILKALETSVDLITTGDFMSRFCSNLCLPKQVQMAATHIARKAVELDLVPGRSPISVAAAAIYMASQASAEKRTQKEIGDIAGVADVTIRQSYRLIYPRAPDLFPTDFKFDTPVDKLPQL

B1: in vitro translated TBPL1 (protein, UniProt P62380 1-186)
chain: MDADSDVALDILITNVVCVFRTRCHLNLRKIALEGANVIYKRDVGKVLMKLRKPRITATIWSSGKIICTGATSEEEAKFGARRLARSLQKLGFQVIFTDFKVVNVLAVCNMPFEIRLPEFTKNNRPHASYEPELHPAVCYRIKSLRATLQIFSTGSITVTGPNVKAVATAVEQIYPFVFESRKEIL
B2: endogenous TBP from adult mouse testis extract (protein, UniProt P29037 1-316)
chain: MDQNNSLPPYAQGLASPQGAMTPGIPIFSPMMPYGTGLTPQPIQNTNSLSILEEQQRQQQQQQQQQQQQQAVATAAASVQQSTSQQPTQGASGQTPQLFHSQTLTTAPLPGTTPLYPSPMTPMTPITPATPASESSGIVPQLQNIVSTVNLGCKLDLKTIALRARNAEYNPKRFAAVIMRIREPRTTALIFSSGKMVCTGAKSEEQSRLAARKYARVVQKLGFPAKFLDFKIQNMVGSCDVKFPIRLEGLVLTHQQFSSYEPELFPGLIYRMIKPRIVLLIFVSGKVVLTGAKVRAEIYEAFENIYPILKGFRKTT
B3: in vitro translated Mph2 (protein, UniProt Q9QWH1 1-850)
chain: MENELPVPHTSNRASVTTNTSGTNSSSGCISSSGGGGGSGGRPTAPQISVYSGIPDRQTVQVIQQALHRQPSTAAQYLQQMYAAQQQHLMLQTAALQQQHLSSAQLQSLAAVQQASLVANRQGSTPGSSVSSQAPAQSSSLNLAASPAAAQLINRAQSVNSAAASGLAQQAVLLGNTSSPALTASQAQMYLRAQMLIFTPTATVATVQPELCTGSPARPPTPAQVQNLTLRTQQTPAAAASGPPPTQPVLPSLALKPTPSSSQPLPAPPQGRTMAQGSPAGAKPSGTDNAPETLKAGDGNCNMEGRPGPGRAVPAVATHPLIAPAYAHLQSHQLLPQPPAKHPQPQFVAQQQPQPPRPAPQVQSQPQLASVSPSLALQSSPEDHALPLGSVTQALPLQCSTTHVHKPGNSQQCHLPTLDTGSQNGHPEGGSHPPQRRFQHTSAVILQVQPASPVTPQQCAPDDWKEVVPAEKSVPVARPGPSPHQQAIIPAIPGGLPGPKSPNIQQCPAHETGQGIVHALTDLSSPGMTSGNGNSASSIAGTAPQNGENKPPQAIVKPQILTHVIEGFVIQEGAEPFPVGRSSLLVGNLKKKYAQGFLPEKPPQQDHTTTTDSEMEEPYLQESKEEGTPLKLKCELCGRVDFAYKFKRSKRFCSMACAKRYNVGCTKRVGLFHSDRSKLQKAGTTTHNRRRASKASLPTLTKDTKKQPSGTVPLSVTAALQLAHSQEDSSRCSDNSSYEEPLSPISASSSTSRRRQGQRDLDLPDMHMRDLVGVGHHFLPSEPTKWNVEDVYEFIRSLPGCQEIAEEFRAQEIDGQALLLLKEDHLMSAMNIKLGPALKIYARISMLKDS
B4: GST-TIPT2 (TATA-binding protein-like factor-interacting protein, isoform 2) (protein, UniProt Q6P926-1 1-205)
chain: MATPLGWSQGGSGSVCLAFDQLRDVIESQEELIHQLRNVMVLQDENFVSKEEFHEIEKKLVEEKAAHAKTKALLAKEEEKLQFALGEVEVLSKQLEKEKMAFEKALSSVKSRVLQESSKKDQLITKCNEIESHIIKQEDILNGKENEIKELQQVISQQKQNFRNHISDFRIQKQQETYMAQVLDQKRKKATGMRRARSRQCSREK
B5: in vitro translated Mel18 (protein, UniProt P23798 1-342)
chain: MHRTTRIKITELNPHLMCALCGGYFIDATTIVECLHSFCKTCIVRYLETNKYCPMCDVQVHKTRPLLSIRSDKTLQDIVYKLVPGLFKDEMKRRRDFYAAYPLTEVPNGSNEDRGEVLEQEKGALGDDEIVSLSIEFYEGVRDREEKKNLTENGDGDKEKTGVRFLRCPAAMTVMHLAKFLRNKMDVPSKYKVEILYEDEPLKEYYTLMDIAYIYPWRRNGPLPLKYRVQPACKRLTLPTVPTPSEGTNTSGASECESVSDKAPSPATLPATSSSLPSPATPSHGSPSSHGPPATHPTSPTPPSTAAGTTTATNGGTSNCLQTPSSTSRGRKMTVNGAPCPP

Assays:
GST-geminin [1] = target: T1, GST-geminin (UniProt O88513); test: pull-down; GST fusion bait on Glutathione Sepharose-4B beads, prey endogenous protein of human U2OS whole cell extract; 1 hour at 4°C in binding buffer, Western blot; only the target purified
T1 sequence: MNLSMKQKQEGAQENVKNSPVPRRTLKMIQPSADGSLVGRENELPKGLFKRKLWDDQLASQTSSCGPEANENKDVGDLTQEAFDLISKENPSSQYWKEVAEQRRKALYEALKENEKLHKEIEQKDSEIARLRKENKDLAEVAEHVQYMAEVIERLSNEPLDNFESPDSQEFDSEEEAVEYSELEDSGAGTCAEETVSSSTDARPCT

[2] = target: T2, GST-TIPT2 (TATA-binding protein-like factor-interacting protein, isoform 2) (mouse) (UniProt Q6P926); test: as above
T2 sequence: B4 chain

HA-TIPT2 (mouse) = target: T3, HA-TIPT2 (mouse) (UniProt Q6P926); test: co-IP; anti-HA affinity matrix, extracts of U2OS clone stably producing HA-TIPT2 (HA-TIPT8) and of untransfected U2OS cells; 4°C
T3 sequence: B4 chain

[3] = target: T2, GST-TIPT2 (TATA-binding protein-like factor-interacting protein, isoform 2) (mouse); test: pull-down; GST fusion bait on Glutathione Sepharose-4B beads, prey in vitro transcribed/translated radioactive protein; 1 hour at 4°C in binding buffer (20 mM Tris pH 7.5, 100 mM NaCl, 1 mM EDTA, 0,1% NP-40), washes up to 150 mM NaCl; only the target purified
GST-geminin [4] = target: T1, GST-geminin; test: as above
GST-geminin [5] = target: T1, GST-geminin; test: pull-down; GST fusion bait on Glutathione Sepharose-4B beads, prey endogenous proteins of adult mouse testis extract; 1 hour at 4°C in binding buffer, Western blot; only the target purified
[6] = target: T2, GST-TIPT2 (TATA-binding protein-like factor-interacting protein, isoform 2) (mouse); test: as above

Row | Molecule | binding [3] | binding (GST-geminin [4]) | also measured
1 | endogenous TBP from human U2OS cells (from UniProt P20226 1-339) | – | – | binding (GST-geminin [1]): binds; binding [2]: binds; binding (HA-TIPT2 (mouse)): binds
2 | in vitro translated Ring1B (from UniProt Q9CQJ4 1-336) | binds | – | –
3 | in vitro translated Scmh1 (from UniProt Q8K214 1-706) | binds | – | –
4 | in vitro translated TBP (TATA box binding protein) (from UniProt P20226 1-339) | binds | binds | –
5 | in vitro translated TFIIB (from UniProt Q00403 1-316) | binds | no binding | –
6 | B1 | binds | binds | –
7 | B2 | – | – | binding (GST-geminin [5]): binds; binding [6]: binds
8 | B3 | binds | – | –
9 | B4 | binds | – | –
10 | B5 | no binding | – | –
